Test results taken from the RNAGym collection of RNA variant scans (doi:10.7554/elife.90254).
Read counts are not given, so values of variants with three or more changes are uncertain.

B1: LINE1-mini (parent)
chain: GGCAGAGCUCAACACAGCGUGGCAAAGUGGCUGUGGCUAGACUGCC

Variants of: B1
Assay: self-cleavage, relative activity (ratio to wild type); higher = more cleavage; in vitro, sequencing; the parent is a self-cleaving ribozyme

Question: Which self-cleavage does the source give for GGCAGAUCCCAACACAGCGUGGCAAAGUGGCUGUGGCUAAACUGUC [G7U U9C G40A C45U] here?
Answer: Its self-cleavage is 0.06.

Question: Which self-cleavage does the source give for GGCAGAUCUCAACACAGCGUGACAAAGUGGCUGCGGCUGGACUGCC [G7U G22A U34C A39G] here?
Answer: Its self-cleavage is 0.03.

Question: With GGCAGAUCUCAACACAACGUGAAAAAGUGGCUGUGAGUAGGCUGCC [G7U G17A G22A C23A G36A C37G A41G] as the variant, how does the self-cleavage read?
Answer: Its self-cleavage is 0.29.

Question: Which self-cleavage does the source give for GGCAGAUCUCAACACAGCGUGGCAAAGUGCCUGUGGCUAUACUGCC [G7U G30C G40U] here?
Answer: Its self-cleavage is 0.35.

Question: For GGCAGAUCACAACACCGCGUGGCAAAGUGGAUGUGGCUAGACUGCC [G7U U9A A16C C31A], which self-cleavage is on record?
Answer: The self-cleavage was 0.21.

Question: Which self-cleavage does the source give for GGCAGAUCUCAACACAUCGUGGCAAAGUGGCUGUAGCUACACUGCC [G7U G17U G35A G40C] here?
Answer: Its self-cleavage is 0.06.

Question: With GGCAGAUCUCAACACAGCAUGGCAAAGUAGCUGUGGCAAGACUGCC [G7U G19A G29A U38A] as the variant, how does the self-cleavage read?
Answer: The self-cleavage was 0.01.

Question: With GGCAGAUCUCAACACAGCGUGGCAAAGUAGUUGUGGCUAGACUGCC [G7U G29A C31U] as the variant, how does the self-cleavage read?
Answer: Its self-cleavage is 0.05.

Question: Which self-cleavage does the source give for GGCAGAUCACAACACAGCGUGGCAUUGUGGCUGUCGCUAGACUGCC [G7U U9A A25U A26U G35C] here?
Answer: Its self-cleavage is 0.03.

Question: Which self-cleavage does the source give for GGCAGAUCUCAACACAGCGUGGCAAAGUGGUUGUGGAUACACUGCC [G7U C31U C37A G40C] here?
Answer: Its self-cleavage is 0.01.

Question: Which self-cleavage does the source give for GGCAGAUCUCAACACAGCGUCGCAAAGUGGCUGUGGCUAAACUGCC [G7U G21C G40A] here?
Answer: The self-cleavage was 0.15.

Question: With GGCAGAUCACAACACAGCGUGGCAUAGUGGCUGUGGCUAGACUACC [G7U U9A A25U G44A] as the variant, how does the self-cleavage read?
Answer: The self-cleavage was 0.7.

Question: With GGCAGAUCUCAACACAGCGUGGCAAAGUGGCUGUGGCUAUACAGCC [G7U G40U U43A] as the variant, how does the self-cleavage read?
Answer: Its self-cleavage is 0.13.

Question: Which self-cleavage does the source give for GGCAGAUCUCAACACACCGUGGCAAAGUGGGUGUGGCUAGACGGCC [G7U G17C C31G U43G] here?
Answer: The self-cleavage was 0.07.

Question: With GGCAGAUCUCAACACAGCGUGGCAAAGUGGCUGUUGCUAGACUGAC [G7U G35U C45A] as the variant, how does the self-cleavage read?
Answer: Its self-cleavage is 0.1.

Question: For GGCAGAUCUCAACACAACGUGGCUAAGUGGCUGUGGCUAGACUGCC [G7U G17A A24U], which self-cleavage is on record?
Answer: The self-cleavage was 0.09.

Question: For GGCAGAUCUCAACACAGCGUGGCAAAGUUCCUGUGGCAAGACUGCC [G7U G29U G30C U38A], which self-cleavage is on record?
Answer: The self-cleavage was 0.01.

Question: Which self-cleavage does the source give for GGCAGAUCUCAACACAGCGUGGCAAAGUGGCUGUAGCUAGACUGCG [G7U G35A C46G] here?
Answer: Its self-cleavage is 0.36.

Question: With GGCAGAUCUCAACACAUCGUGGCAAAGUGGCUGUGGCUAGCCUGCA [G7U G17U A41C C46A] as the variant, how does the self-cleavage read?
Answer: Its self-cleavage is 0.04.

Question: For GGCAGAUCCCAACACAGCAUGGCAAAGUAGCUGUGCCUAGAUUGCC [G7U U9C G19A G29A G36C C42U], which self-cleavage is on record?
Answer: The self-cleavage was 0.03.

Question: For GGCAGAUCUCAACACAGCGUGGCAAAGUGGUUGUAGCUAGACUGAC [G7U C31U G35A C45A], which self-cleavage is on record?
Answer: Its self-cleavage is 0.08.

Question: Which self-cleavage does the source give for GGCAGAUCUCAACACAGCGUGGCAAAGUGGCUGUUGCUAGACAGCC [G7U G35U U43A] here?
Answer: The self-cleavage was 0.46.

Question: Which self-cleavage does the source give for GGCAGAUCUCAACACACCGUGGCAAAGUGACUGUGGCGAGACUGCC [G7U G17C G30A U38G] here?
Answer: Its self-cleavage is 0.04.

Question: Which self-cleavage does the source give for GGCAGAUCUCAACACAGCAUGGCAUAGUGGCUGUGGCUAGACUGCC [G7U G19A A25U] here?
Answer: The self-cleavage was 0.05.

Question: Which self-cleavage does the source give for GGCAGAUCUCAACACAGCGUGGCAAAGUGGCUGUCGCAAGACCGCC [G7U G35C U38A U43C] here?
Answer: The self-cleavage was 0.09.

Question: Which self-cleavage does the source give for GGCAGAUCUCAACACAGCGUGGCAAAUUGGCUGUGGCAAGACUGCC [G7U G27U U38A] here?
Answer: The self-cleavage was 0.11.

Question: For GGCAGAUCUCAACACAGCGUGGCAAAGUGUCUGUGGCAAGACUGCC [G7U G30U U38A], which self-cleavage is on record?
Answer: The self-cleavage was 0.06.

Question: Which self-cleavage does the source give for GGCAGAUCUCAACACACCCUGGCUAAUUGGCUGUGGCUAGACUGCC [G7U G17C G19C A24U G27U] here?
Answer: The self-cleavage was 0.04.

Question: Which self-cleavage does the source give for GGCAGAUCUCAACACAGCGUGGCAAAGUGGCUGUGAGUAGACCGCC [G7U G36A C37G U43C] here?
Answer: Its self-cleavage is 0.14.

Question: Which self-cleavage does the source give for GGCAGAUCUCAACACAGCGUGGCAAAGUGGCUUUUGCUAUACUGCA [G7U G33U G35U G40U C46A] here?
Answer: The self-cleavage was 0.03.

Question: For GGCAGAUCUCAACACAGCGUGGCAAAGUAUAUGUGGCUAGACUGCC [G7U G29A G30U C31A], which self-cleavage is on record?
Answer: The self-cleavage was 0.11.

Question: For GGCAGAUCUCAACACAGCGUGGCAAAGUGACUGUGGUUAGACUGCC [G7U G30A C37U], which self-cleavage is on record?
Answer: The self-cleavage was 0.03.

Question: With GGCAGAUCUCAACACAGCGUGGCAAAGUGGCUGUGGCUAGAGUGCA [G7U C42G C46A] as the variant, how does the self-cleavage read?
Answer: Its self-cleavage is 0.22.

Question: Which self-cleavage does the source give for GGCAGAUCACAACACAGUGUGGAAAAGUGGCUGUGGCUAGACUGCC [G7U U9A C18U C23A] here?
Answer: The self-cleavage was 0.13.

Question: Which self-cleavage does the source give for GGCAGAUCACAACACAGCGUGACAACGUGGCUGUGGCUAGACUGCC [G7U U9A G22A A26C] here?
Answer: Its self-cleavage is 0.06.

Question: Which self-cleavage does the source give for GGCAGAUCUCAACACAUCGUGGCAAAGCGGCUGUGGCUGAACUGGC [G7U G17U U28C A39G G40A C45G] here?
Answer: Its self-cleavage is 0.04.

Question: Which self-cleavage does the source give for GGCAGAUCUCAACACAACGAGGAGAAGUAGCUGUGGCUAGGCUGCC [G7U G17A U20A C23A A24G G29A A41G] here?
Answer: The self-cleavage was 0.09.

Question: With GGCAGAUCUCAACACAGCGUGGCAAAGUCACUGUGGCUAGACUGCC [G7U G29C G30A] as the variant, how does the self-cleavage read?
Answer: The self-cleavage was 0.03.

Question: Which self-cleavage does the source give for GGCAGAUCUCAACACAGCGUGGCAAAGUGGCUCUGGCUAGAGUGCC [G7U G33C C42G] here?
Answer: The self-cleavage was 0.08.

Question: For GGCAGAUCCCAACACAGUGUGGCAAUGUGGAUGUGGCCAGACUGCC [G7U U9C C18U A26U C31A U38C], which self-cleavage is on record?
Answer: The self-cleavage was 0.04.

Question: For GGCAGAUCACAACACAGCGUGGCAAAGUGGCUGUGGCUAGACUGGC [G7U U9A C45G], which self-cleavage is on record?
Answer: The self-cleavage was 0.21.

Question: With GGCAGAUCUCAACACAGCGUGGCAAAUUGGUUCUGGCUAGACUGCC [G7U G27U C31U G33C] as the variant, how does the self-cleavage read?
Answer: Its self-cleavage is 0.03.

Question: Which self-cleavage does the source give for GGCAGAUCUCAACACAGCGUGGCAAAGUUGGUGUGGCUAGACUGCC [G7U G29U C31G] here?
Answer: Its self-cleavage is 0.06.

Question: With GGCAGAUCUCAACACAGCGUGGCAAAGUGACUGUGUCUAGACUGCC [G7U G30A G36U] as the variant, how does the self-cleavage read?
Answer: Its self-cleavage is 0.07.

Question: With GGCAGAUCUCAACACAACGUGGCAAAGUGGCUGUGGCUAGACUACC [G7U G17A G44A] as the variant, how does the self-cleavage read?
Answer: Its self-cleavage is 0.

Question: Which self-cleavage does the source give for GGCAGAUCUCAACACACCGUGGCAAACUGGAUGAGGCUAGACUGCC [G7U G17C G27C C31A U34A] here?
Answer: The self-cleavage was 0.03.

Question: With GGCAGAUCUCAACACAGCGUGGCAAAUUGGCUUUGGCUAGACUGCC [G7U G27U G33U] as the variant, how does the self-cleavage read?
Answer: Its self-cleavage is 0.06.

Question: With GGCAGAUCUCAACACAGCGUGGCAAAGUGGCUGUGGAUAAACUGCC [G7U C37A G40A] as the variant, how does the self-cleavage read?
Answer: Its self-cleavage is 0.12.

Question: Which self-cleavage does the source give for GGCAGAUCUCAACACAGCGUAUCAACGUGGGUGUGGCUAGACUGCC [G7U G21A G22U A26C C31G] here?
Answer: Its self-cleavage is 0.09.

Question: Which self-cleavage does the source give for GGCAGAUCACAACACAGCUUGGCAAAGUGGCUGUGGCUAGACUGCC [G7U U9A G19U] here?
Answer: The self-cleavage was 0.1.

Question: With GGCAGAUCCCAACACAGCCUGGCAAAGUGGCUGUGGCUAGACUGCC [G7U U9C G19C] as the variant, how does the self-cleavage read?
Answer: The self-cleavage was 0.03.

Question: For GGCAGAUCUCAACACAGCGUGGCAAAGUUGCUGUGGGUAGACAGCC [G7U G29U C37G U43A], which self-cleavage is on record?
Answer: Its self-cleavage is 0.02.

Question: For GGCAGAUCCCAACACAGCGUGGCGAGGUGGCUGUGGCUAGACUGCC [G7U U9C A24G A26G], which self-cleavage is on record?
Answer: The self-cleavage was 1.

Question: With GGCAGAUCUCAACACAGCUUGGCAAAGUGGCUGUGGCUAGACUGGC [G7U G19U C45G] as the variant, how does the self-cleavage read?
Answer: Its self-cleavage is 0.04.

Question: With GGCAGAUCAGAACACAGCGUGCCAAAGUGGCUUUGGCUAGACUGCC [G7U U9A C10G G22C G33U] as the variant, how does the self-cleavage read?
Answer: Its self-cleavage is 0.05.

Question: For GGCAGAUCUCAACACAUCGUGGCAAAGUGGCUGUGUCUAGACUGCA [G7U G17U G36U C46A], which self-cleavage is on record?
Answer: Its self-cleavage is 0.14.
